Laboratory results from PubChem BioAssay AID2546 (National Center for Advancing Translational Sciences (NCATS), 2010).
“And” between values parts separate entries of the source, which are not always exact repeats. Equal values may be shown once. The whole screen tested about 310,000 compounds, of which about 11,000 (3.5%) were called active. The inconclusive results got no clear call from the source; some entries with a clear call stand among them for comparison. Calls follow the shape of the dose curve; as a rule, active = well fitted inhibition curve with a large enough effect; inconclusive = small, poorly fitted or top-dose-only effect, or effect the other way; inactive = flat fitted curve, though single readings scatter. Potencies of inconclusive entries are left out as doubtful fits.

Assay: VP16 counterscreen qHTS for inhibitors of ROR gamma transcriptional activity;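 also: Gal4-VP16 expression switched on by copper sulfate through the metallothionein promoter; nearly all actives have a fitted effect of over 50% in size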
Settings: Drosophila S2 Gal4-VP16 UAS-luciferase, luminescence, 20 h; activity, negative = inhibition: at 53.6 µM (top of the series)
% is scaled to controls: 0 for no effect and ±100 for the full control effect; potency is read from the fitted curve at half-maximal effect; tags tell the direction and shape of the fitted curve.

| SMILES | activity, negative = inhibition | Potency |
| --- | --- | --- |
| CCc1ccccc1NC(=O)N[C@H](C(=O)O)C(C)CC (some centres not stated) | inactive: -7.08% | – |
| Cc1c(C)c2ccc(OCC(=O)N(C)C)c(C)c2oc1=O | inactive: 12.5% | – |
| COc1ccccc1NC(=O)OCC#CCOC(=O)Nc1ccccc1OC | – | inconclusive [inhibitor, single point] |
| CCc1c(C)[nH]c2ccc(C)cc2c1=O | – | inconclusive [inhibitor, single point] |
| CN(c1ccccc1)S(=O)(=O)c1cccc(NC(=O)CSc2nnc(N)s2)c1 | – | inconclusive [inhibitor, single point] |
| O=c1[nH][nH]c(-c2ccccc2)c1C=Nc1ccc(Cl)cc1 | – | inconclusive [inhibitor, single point] |
| COc1cc(C2CC(=O)N(c3ccc(C)cc3)C(=O)C2)cc(OC)c1OC | inactive: 6.01% | – |
| COc1ccc(O)c(C(=O)c2cc(C#N)c(=O)n(Cc3ccccc3)c2)c1 | inactive: 0.694% [at 10 µM] | – |
| FC(F)(F)c1ccccc1-c1nc(Nc2ccncc2)c2ccccc2n1 | – | inconclusive [inhibitor, single point] |
| CCNC(=S)NNC(=O)c1cc(-c2cccc(C)c2)nc2ccccc12 | – | active: 8.91 µM |
| Cc1[nH]n(-c2ccccc2)c(=O)c1/C=N/NC(=O)c1ccoc1C | – | active: 1 µM |
| COc1ccc(C)cc1NC(=O)CSc1nnc(COc2ccccc2)n1Cc1ccco1 | – | inconclusive [inhibitor, single point] |
| COc1ccccc1-c1nc(SCc2ccccn2)n[nH]1 | inactive: 21.6% | – |
| O=C(CSc1nc2ccccc2c(=O)n1Cc1ccco1)c1ccc(F)cc1 | – | inconclusive [inhibitor, single point] |
| Cc1ccc(Cl)cc1N1CCN(CC(=O)NC2CCCc3ccccc32)CC1 (configuration not stated) | inactive: -11% | – |
| CCN1C(=O)[C@H]2[C@H]3[C@H](O)[C@H](O)C/C(=N/O[C@@H](C)CN4CCCCc5nc(C)c(C)cc54)[C@@H]3CC[C@@H]2C1=O | inactive: -4.74% [at 10 µM] | – |
| Cc1cccc(C)c1NC(=O)COC(=O)Cc1ccsc1 | – | inconclusive [inhibitor, single point] |
| COc1ccccc1CNS(=O)(=O)c1cccs1 | – | inconclusive [activator, single point] |
| COc1cccc(-c2ccc3ncnc(NCc4cnc(C)cn4)c3c2)c1 | – | inconclusive [inhibitor, single point] |
| CC1CCC(C(C)C)C(OC(=O)Cn2c(-c3ccc(Br)cc3)[n+](C)c3ccccc32)C1 (configuration not stated) | – | inconclusive [inhibitor, single point] |
| COC(=O)c1ccc(NC(=S)NNC(=O)CC(C)C)cc1 | – | inconclusive [inhibitor, partial curve, poor fit] |
| CCCOc1ccc(NC(=O)CC2C(=O)N(c3ccc(OCC)cc3)C(=S)N2C2CC2)cc1 (configuration not stated) | – | inconclusive [inhibitor, single point] |
| Nc1c2c(nc3ccccc13)N(c1ccccc1)CC2 | inactive: 7.53% | – |
| CCOc1ccccc1NC(=S)N1CCN(c2nc(-c3ccc(F)cc3)cs2)CC1 | – | inconclusive [inhibitor, single point] |

| SMILES | activity, negative = inhibition | Potency |
| --- | --- | --- |
| COC(=O)c1ccc(C23CC2(C(NP(=O)(c2ccccc2)c2ccccc2)c2ccccc2)C3)cc1 (configuration not stated) | – | inconclusive [activator, partial curve] |
| CCOc1cccc2cc(-c3cn4cc(C)ccc4n3)c(=O)oc12 | – | inconclusive [inhibitor, full curve] |
| C=CCN1C(c2cccc(C(F)(F)F)c2)=CS/C1=C(/C#N)c1nnc(N2CCOCC2)n1-c1ccccc1 | inactive: -16.2% | – |
| Cc1[nH]n(-c2ccccc2)c(=O)c1C=Nc1ccc2[nH]c(=O)[nH]c2c1 | inactive: 0.938% | – |
| Cc1ccc(OCC(=O)c2cc(C)c(C)cc2C)c([N+](=O)[O-])n1 | – | inconclusive [inhibitor, single point] |
| CCOc1cc(CNCCc2ccc(S(N)(=O)=O)cc2)cc(Cl)c1OCc1ccccc1 | – | inconclusive [inhibitor, single point] |
| Fc1ccc(Nc2ncnc3ccc(-c4ccoc4)cc23)cc1 | inactive: -11.1% | – |
| Cc1ccc(-c2nc(CN3CCCCC3)cc(CN3CCCCC3)c2O)cc1 | – | inconclusive [inhibitor, partial curve] |
| CC(NCc1nc2ccccc2n1C)C12CC3CC(CC(C3)C1)C2 (configuration not stated) | – | inconclusive [inhibitor, single point] |
| c1ccc(NC2=Nc3cccc4cccc2c34)cc1 | – | inconclusive [inhibitor, single point] |
| CCn1cc(Cl)c(C(=O)N2N=C(c3ccc4ccccc4c3)CC2c2ccccc2O)n1 (configuration not stated) | – | active: 15.8 µM |
| COc1cccc2cc(C(C)N(CCCN3CCOCC3)C(=S)Nc3cc(C)cc(C)c3)oc12 (configuration not stated) | – | inconclusive [inhibitor, partial curve] |
| CC1CCC2(C(=O)O)CCC3(C)C(=CCC4C3(C)CCC3[C@@]4(C)CC(O)C(O)[C@@]3(C)CO)C2C1C (some centres not stated) | inactive: 0.888% | – |
| CCOc1cc(C(=O)Nc2ccncc2)cc(OCC)c1OCC | – | inconclusive [inhibitor, single point] |
| Cc1ccc(S(=O)(=O)N2CCOCC2)cc1C(=O)NC(=S)N(Cc1ccccc1)C(C)C | – | active: 3.98 µM |
| CCCOc1ccc(/C=N/Nc2ccccc2[N+](=O)[O-])c(O)c1 | – | inconclusive [inhibitor, full curve] |
| CCOC(=O)CSc1nc(C2CC2)nc2ccccc12 | inactive: -17.5% | – |
| C=C(C)C1CC=C(C)/C(=N/NC(=O)c2cccc([N+](=O)[O-])c2)C1 (configuration not stated) | inactive: 1.62% | – |
| Cc1cc(/C=N/NC(=O)c2ccc(O)cc2)c(C)n1C1CC1 | – | inconclusive [inhibitor, single point] |
| Cc1cccc(C(=O)NNC(=O)c2ccc(Br)cc2)c1 | inactive: 1.9% | – |
| CC(=O)Oc1oc(-c2ccccc2)nc1C=Nc1ccccc1 | – | inconclusive [inhibitor, single point] |
| COc1ccccc1NCC(=O)N/N=C/c1sccc1C | – | inconclusive [inhibitor, single point] |
| S=C(NCc1ccco1)NCc1ccccc1Cl | – | inconclusive [inhibitor, single point] |
| Cc1cc(C(=O)NC2=NCCS2)cs1 | – | inconclusive [inhibitor, single point] |

| SMILES | activity, negative = inhibition | Potency |
| --- | --- | --- |
| CCc1c(C)sc(NC(=O)CSc2nc3c(c(C(F)(F)F)n2)CCc2ccccc2-3)c1C#N | inactive: -2.18% | – |
| Cc1cccc(NC(=O)c2ccc(Cn3cc(C(F)(F)F)ccc3=O)cc2)c1 | inactive: -4.7% | – |
| COc1ccc(C(=O)Nc2cccc(-c3ccc4nncn4n3)c2)cc1 | inactive: 7.59% | – |
| Cc1ccoc1C(=O)Nc1ccc2ccccc2c1 | – | inconclusive [inhibitor, single point] |
| N#C/C(=C/c1ccc(Sc2nc3ccccc3[nH]2)o1)c1cccc(Br)c1 | – | inconclusive [inhibitor, single point] |
| Cc1cccc(-n2cc(CN(C)Cc3nccn3C)c(-c3cccc(F)c3)n2)c1 | – | inconclusive [inhibitor, single point] |
| CNC(=S)N/N=C(\C)c1ccc2c(c1)OCCO2 | – | active: 8.91 µM |
| COC(=O)c1ccc(CSc2nc3ccccc3[nH]2)o1 | – | inconclusive [activator, single point] |
| COCCn1c(=O)c(CCc2ccccc2)nc2cncnc21 | – | inconclusive [activator, partial curve] |
| CCN1CCN(c2ncnc3sc(C(=O)Nc4ccccc4F)c(C)c23)CC1 | inactive: -11.3% | – |
| Oc1c(C=C2N=c3ccccc3=N2)sc(=S)n1-c1ccc(F)cc1 | – | active: 10 µM and active: 12.6 µM |
| O=C(N[C@@H](Cc1ccccc1)C(=O)OCc1ccccc1)c1nc[nH]c1C(=O)N[C@@H](Cc1ccccc1)C(=O)OCc1ccccc1 | – | inconclusive [inhibitor, single point] |
| Cc1ccc(SCCNC(=S)Nc2cc(C)ccc2C)cc1 | – | active: 7.94 µM |
| CCOC(=O)c1c(NC(=O)Cn2nc([N+](=O)[O-])c(Br)c2C)sc2c1CCC(C)C2 (configuration not stated) | – | inconclusive [inhibitor, single point] |
| CCC(=O)NCCc1nc2cc(NC(=O)Nc3ccccc3)ccc2n1C | – | inconclusive [inhibitor, partial curve] |
| Oc1ccc(Br)cc1-c1cc(-c2ccc(Cl)cc2)n[nH]1 | – | inconclusive [inhibitor, single point] |
| CCn1c(C)nc2cc(C(=O)N/N=C/c3cccc(OC)c3O)ccc21 | – | active: 0.708 µM |
| S=C(NCc1ccco1)Nc1ccc2c(c1)OCCO2 | – | inconclusive [activator, single point] |
| C=CCn1c(NCCc2ccccc2)nc2c1c(=O)n(C)c(=O)n2C | – | inconclusive [inhibitor, single point] |
| Cc1ccccc1SCc1noc(C(=O)NC(C)C)c1C(=O)O | – | inconclusive [inhibitor, single point] |
| CS/C(N)=N/C(=S)Nc1cccc(Cl)c1 | – | inconclusive [inhibitor, single point] |
| CC(C)Nc1nc(NC(C)C)nc(N(C)N)n1 | inactive: 8.76% | – |
| Cc1ccc(C(=O)NC(=S)Nc2ccccc2C)cc1 | – | inconclusive [inhibitor, single point] |
| O=C1/C(=C/c2ccncc2)CCC/C1=C\c1ccncc1 | – | active: 5.01 µM |
